Numbering of substitutions follows the chain as printed; changes in the protein carry UniProt numbers. Some of the results follow.

Sequences and labels used below:
T1: RBFOX1 RRM RbFoxmut (Fox-RRM*) (Homo sapiens, UniProt Q9NWB1 109-208, R118D;E147R;N151S;E152T)
T1 sequence: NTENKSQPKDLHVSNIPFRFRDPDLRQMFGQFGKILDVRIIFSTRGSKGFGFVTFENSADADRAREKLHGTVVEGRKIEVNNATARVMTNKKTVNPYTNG

B1: GUGCGAU (DNA:RNA)
RNA: GGGAGACCGGAAUUCAGAUUGUCCGUGCGAUUUAAAUCCCGUCGUAGCCACCA
DNA 1: CAATCTGAATTCCGGTCTCCC
DNA 2: TGGTGGCTACGACGGGATT
B2: GAGCGAG (DNA:RNA)
RNA: B1 RNA with U26A, U31G
DNA 1: CAATCTGAATTCCGGTCTCCC
DNA 2: TGGTGGCTACGACGGGATT
B3: ACAUAAA (DNA:RNA)
RNA: B1 RNA with G25A, U26C, G27A, C28U, G29A, U31A
DNA 1: CAATCTGAATTCCGGTCTCCC
DNA 2: TGGTGGCTACGACGGGATT
B4: UGUAAUA (DNA:RNA)
RNA: GGGAGACCGGAAUUCAGAUUGUCCUGUAAUAUUAAAUCCCGUCGUAGCCACCA
DNA 1: CAATCTGAATTCCGGTCTCCC
DNA 2: TGGTGGCTACGACGGGATT
B5: AUCUCAG (DNA:RNA)
RNA: B1 RNA with G25A, G27C, C28U, G29C, U31G
DNA 1: CAATCTGAATTCCGGTCTCCC
DNA 2: TGGTGGCTACGACGGGATT
B6: ACGCUGG (DNA:RNA)
RNA: B1 RNA with G25A, U26C, G29U, A30G, U31G
DNA 1: CAATCTGAATTCCGGTCTCCC
DNA 2: TGGTGGCTACGACGGGATT
B7: AUCUAUU (DNA:RNA)
RNA: B1 RNA with G25A, G27C, C28U, G29A, A30U
DNA 1: CAATCTGAATTCCGGTCTCCC
DNA 2: TGGTGGCTACGACGGGATT
B8: UUGGGUU (DNA:RNA)
RNA: B1 RNA with G25U, C28G, A30U
DNA 1: CAATCTGAATTCCGGTCTCCC
DNA 2: TGGTGGCTACGACGGGATT
B9: UAACGUA (DNA:RNA)
RNA: B4 RNA with G26A, U27A, A28C, A29G
DNA 1: CAATCTGAATTCCGGTCTCCC
DNA 2: TGGTGGCTACGACGGGATT
B10: CUCCUGC (DNA:RNA)
RNA: B1 RNA with G25C, G27C, G29U, A30G, U31C
DNA 1: CAATCTGAATTCCGGTCTCCC
DNA 2: TGGTGGCTACGACGGGATT
B11: GAUCUAC (DNA:RNA)
RNA: B1 RNA with U26A, G27U, G29U, U31C
DNA 1: CAATCTGAATTCCGGTCTCCC
DNA 2: TGGTGGCTACGACGGGATT
B12: UUGAGGA (DNA:RNA)
RNA: B1 RNA with G25U, C28A, A30G, U31A
DNA 1: CAATCTGAATTCCGGTCTCCC
DNA 2: TGGTGGCTACGACGGGATT
B13: CGUUAUA (DNA:RNA)
RNA: B4 RNA with U25C, A28U
DNA 1: CAATCTGAATTCCGGTCTCCC
DNA 2: TGGTGGCTACGACGGGATT
B14: CUGUUCG (DNA:RNA)
RNA: B1 RNA with G25C, C28U, G29U, A30C, U31G
DNA 1: CAATCTGAATTCCGGTCTCCC
DNA 2: TGGTGGCTACGACGGGATT
B15: CAGCCGU (DNA:RNA)
RNA: B1 RNA with G25C, U26A, G29C, A30G
DNA 1: CAATCTGAATTCCGGTCTCCC
DNA 2: TGGTGGCTACGACGGGATT
B16: CUUGGUA (DNA:RNA)
RNA: B4 RNA with U25C, G26U, A28G, A29G
DNA 1: CAATCTGAATTCCGGTCTCCC
DNA 2: TGGTGGCTACGACGGGATT
B17: CUAAAGU (DNA:RNA)
RNA: B1 RNA with G25C, G27A, C28A, G29A, A30G
DNA 1: CAATCTGAATTCCGGTCTCCC
DNA 2: TGGTGGCTACGACGGGATT
B18: UCUCCGC (DNA:RNA)
RNA: B4 RNA with G26C, A28C, A29C, U30G, A31C
DNA 1: CAATCTGAATTCCGGTCTCCC
DNA 2: TGGTGGCTACGACGGGATT
B19: CCCGUGU (DNA:RNA)
RNA: B1 RNA with G25C, U26C, G27C, C28G, G29U, A30G
DNA 1: CAATCTGAATTCCGGTCTCCC
DNA 2: TGGTGGCTACGACGGGATT
B20: CGACACU (DNA:RNA)
RNA: B1 RNA with G25C, U26G, G27A, G29A, A30C
DNA 1: CAATCTGAATTCCGGTCTCCC
DNA 2: TGGTGGCTACGACGGGATT

For this assay, the target named is T1, RBFOX1 RRM RbFoxmut (Fox-RRM*). Put plainly: EMSA; HiTS-Eq, 1 nM pool, 10 min; buffer printed only for the single-RNA assays: 10 mM Tris pH 7.5, 150 mM NaCl, 3.4 mM EDTA, 0.001% NP-40, 30 C. The following applies: tags: His6 N-terminal (pET28a); label: 5' 32P. An outline of the steps:
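These values rest on relative association constants, computed from read-count changes of each RNA species versus the control reaction and normalised to the cognate motif. Reads came from free RNA recovered by 8% native PAGE after purified RbFox RRM (wild type or mutant) at increasing concentrations was equilibrated for 10 min in 50 µL with 1 nM of a 5′-radiolabelled pool with 7 randomized nucleotides and DNA-annealed flanks.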
For B1, the binding signal is 0.0899 KA relative to UGCAUGU.
For B2, the binding signal was 0.109 KA relative to UGCAUGU.
Regarding B3, the binding signal is 0.146 KA relative to UGCAUGU.
Regarding B4, the binding signal was 0.0977 KA relative to UGCAUGU.
As for B5, the figure is 0.136 KA relative to UGCAUGU.
Consider B6, for which the binding signal is 0.107 KA relative to UGCAUGU.
The figure for B7 is 0.106 KA relative to UGCAUGU.
As for B8, the figure is 0.148 KA relative to UGCAUGU; as for B9, 0.128 KA relative to UGCAUGU.
The figure for B10 is 0.0939 KA relative to UGCAUGU; for B11 it is 0.0679 KA relative to UGCAUGU.
As to B12, the binding signal was 0.0773 KA relative to UGCAUGU.
The figure for B13 is 0.121 KA relative to UGCAUGU; for B14 it is 0.274 KA relative to UGCAUGU; for B15 it is 0.0905 KA relative to UGCAUGU.
As for B16, the figure is 0.198 KA relative to UGCAUGU.
In the case of B17, the binding signal was 0.0851 KA relative to UGCAUGU.
Regarding B18, the binding signal is 0.077 KA relative to UGCAUGU.
As for B19, the figure is 0.103 KA relative to UGCAUGU; as for B20, 0.0552 KA relative to UGCAUGU.

The values are drawn from publication PMC9911399, “Two distinct binding modes provide the RNA-binding protein RbFox with extraordinary sequence specificity”.
